Sequences with one replicate were seen in a single cluster, so their values are uncertain.
The sequences below were run on ATP (assay: switch fluorescence ratio, 500 uM ATP over buffer (Cy3 cluster intensity, sum of 5 cycles each) (fold (ratio)); higher = stronger signal-on switching upon ATP binding; sequences stand for … in TCGTCGGCAGCGTCAGATGTGTATAAGAGACAGTTTTTTTTTTTTTTTTTTTTTTTTT…TC). Conditions: aptamer strand: ATP DNA aptamer (quencher-CACCTGGGGGAGTATTGCGGAGGAAGG + anchor), 100 nM annealed; ATP concentration: 500 uM; one replicate.
Procedure, shortened: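 Exposure to 500 uM ATP lasted 15 min at 22 °C before imaging, and a selection-buffer image was taken beforehand, for Cy3-labelled switching-strand clusters on a modified Illumina MiSeq flow-cell annealed to 100 nM quencher-labelled ATP aptamer. Five buffer/ATP cycles were run with NaOH stripping and re-annealing between them. The fluorescence ratio per cluster is summed target-cycle over summed buffer-cycle Cy3 intensity, averaged per switch-domain sequence. Clusters outside 100-1000 RFU were excluded.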
Work on TCGCGAAATA yielded a switch fluorescence ratio of 1.02. TCGCGCCATG showed a switch fluorescence ratio of 1.01. Work on TCGCGGAGGT yielded a switch fluorescence ratio of 1.05. With TCGCGGGGTC the switch fluorescence ratio was 1.02. For TCGCGGTTTC, the switch fluorescence ratio was 1.06. For TCGCTACTT, the switch fluorescence ratio was 1.11. TCGCTAGAGA was tested, and the switch fluorescence ratio was 0.993. TCGCTCACCG was tested, and the switch fluorescence ratio was 1.03. With TCGCTGACGG the switch fluorescence ratio was 0.992. TCGCTGTCAC showed a switch fluorescence ratio of 1.77. Work on TCGCTGTTAC yielded a switch fluorescence ratio of 4.24. TCGCTTAGGC showed a switch fluorescence ratio of 1.04. For TCGCTTCGGG, the switch fluorescence ratio was 0.979. TCGCTTGTTT showed a switch fluorescence ratio of 0.985. For TCGGAAATTC, the switch fluorescence ratio was 1.04. Work on TCGGAACGTG yielded a switch fluorescence ratio of 0.988. With TCGGAATGGA the switch fluorescence ratio was 0.986. For TCGGACATT, the switch fluorescence ratio was 1.1. Sequence TCGGAGGATG has a switch fluorescence ratio of 0.986. TCGGATGAAT was tested, and the switch fluorescence ratio was 1.02. In the case of TCGGCACTG, the switch fluorescence ratio is reported as 1.13. With TCGGCAGTAT the switch fluorescence ratio was 1.04. TCGGCCTCGG gave a switch fluorescence ratio of 1. Sequence TCGGCCTGGA has a switch fluorescence ratio of 1.03. Work on TCGGCGGAA yielded a switch fluorescence ratio of 1.1. For TCGGCTAAG, the switch fluorescence ratio was 0.991. For TCGGCTAGAG, the switch fluorescence ratio was 1.05. Sequence TCGGCTCACG has a switch fluorescence ratio of 0.941. For TCGGCTCGTT, the switch fluorescence ratio was 1. TCGGGAGAGA gave a switch fluorescence ratio of 1.01. With TCGGGCCTTT the switch fluorescence ratio was 1.01. For TCGGGCGGAT, the switch fluorescence ratio was 0.986. Sequence TCGGGGAAAC has a switch fluorescence ratio of 1.03. Work on TCGGGGAACC yielded a switch fluorescence ratio of 0.992. Work on TCGGGGAGCC yielded a switch fluorescence ratio of 1. In the case of TCGGGGCATC, the switch fluorescence ratio is reported as 0.995. In the case of TCGGGGTTG, the switch fluorescence ratio is reported as 0.977. For TCGGGTATAC, the switch fluorescence ratio was 1.27. TCGGGTCTTG showed a switch fluorescence ratio of 1.04. TCGGGTGAAA showed a switch fluorescence ratio of 1.01. TCGGGTGACG showed a switch fluorescence ratio of 1.12. Work on TCGGTAACGT yielded a switch fluorescence ratio of 0.975. Sequence TCGGTATAGA has a switch fluorescence ratio of 1.01. TCGGTCATCA gave a switch fluorescence ratio of 1.01. Work on TCGGTCTGCG yielded a switch fluorescence ratio of 1. For TCGGTGCGTT, the switch fluorescence ratio was 0.989. With TCGGTGGTGT the switch fluorescence ratio was 0.945. In the case of TCGGTTACG, the switch fluorescence ratio is reported as 1.01. For TCGGTTCTA, the switch fluorescence ratio was 1.03. TCGGTTCTAT gave a switch fluorescence ratio of 1.01. TCGGTTTGGG was tested, and the switch fluorescence ratio was 1. With TCGTAAAGAT the switch fluorescence ratio was 1.25. TCGTACTTCT was tested, and the switch fluorescence ratio was 1.01. TCGTAGAGCA showed a switch fluorescence ratio of 1.04. TCGTAGCTCG gave a switch fluorescence ratio of 0.956. For TCGTAGGGTA, the switch fluorescence ratio was 1. In the case of TCGTAGTGCG, the switch fluorescence ratio is reported as 1.06. For TCGTATCGCT, the switch fluorescence ratio was 0.99. TCGTATGGG was tested, and the switch fluorescence ratio was 0.958. With TCGTATTTAG the switch fluorescence ratio was 1.03. For TCGTCATATG, the switch fluorescence ratio was 0.997. For TCGTCCGTGT, the switch fluorescence ratio was 1.26. Sequence TCGTCCTTCA has a switch fluorescence ratio of 1.14. With TCGTCGTCAA the switch fluorescence ratio was 1.49. For TCGTCTCATT, the switch fluorescence ratio was 0.97. In the case of TCGTCTCCTA, the switch fluorescence ratio is reported as 0.997. TCGTGACCTT gave a switch fluorescence ratio of 1.15. Work on TCGTGATGAC yielded a switch fluorescence ratio of 1.23. TCGTGCCTAT was tested, and the switch fluorescence ratio was 1.04. TCGTGTCCGG was tested, and the switch fluorescence ratio was 0.976. Work on TCGTGTGGGC yielded a switch fluorescence ratio of 0.982. Work on TCGTTAACCA yielded a switch fluorescence ratio of 1.03. TCGTTATAT gave a switch fluorescence ratio of 1.06. TCGTTCCGAC gave a switch fluorescence ratio of 1.56. TCGTTCTAGG was tested, and the switch fluorescence ratio was 1.02. For TCGTTGATAT, the switch fluorescence ratio was 1.08. TCGTTGGTAG showed a switch fluorescence ratio of 0.981. TCGTTTAGT was tested, and the switch fluorescence ratio was 0.967. For TCGTTTCAAT, the switch fluorescence ratio was 1.95. TCGTTTGTAC showed a switch fluorescence ratio of 1.18. For TCTAAACTAA, the switch fluorescence ratio was 1.02. Work on TCTAAATGGC yielded a switch fluorescence ratio of 1.04. TCTAAGTGTT gave a switch fluorescence ratio of 1.01. With TCTACCGGGC the switch fluorescence ratio was 1.09. TCTACTCTCG showed a switch fluorescence ratio of 1.01. In the case of TCTACTGCAC, the switch fluorescence ratio is reported as 1.85. Sequence TCTACTTGAG has a switch fluorescence ratio of 1.02. TCTAGAAAGT gave a switch fluorescence ratio of 0.971. TCTAGAAGAT showed a switch fluorescence ratio of 0.974. TCTAGAGGTC showed a switch fluorescence ratio of 0.914. TCTAGCACAT was tested, and the switch fluorescence ratio was 1.18. TCTAGCAGTG gave a switch fluorescence ratio of 0.96. In the case of TCTAGGGTTG, the switch fluorescence ratio is reported as 0.984. With TCTAGTAAC the switch fluorescence ratio was 1.03. With TCTAGTTCAG the switch fluorescence ratio was 1.04. In the case of TCTAGTTCTT, the switch fluorescence ratio is reported as 1.02. Work on TCTATCGTAC yielded a switch fluorescence ratio of 1.24. In the case of TCTATTGGTC, the switch fluorescence ratio is reported as 0.985. Work on TCTCACATTA yielded a switch fluorescence ratio of 1.05. TCTCAGAAAT gave a switch fluorescence ratio of 1.22. Sequence TCTCAGTACG has a switch fluorescence ratio of 1.04. Work on TCTCCATGGT yielded a switch fluorescence ratio of 0.98. TCTCCGTGTA was tested, and the switch fluorescence ratio was 4.03. Work on TCTCGATTCT yielded a switch fluorescence ratio of 0.976. TCTCGGAAAT gave a switch fluorescence ratio of 1.34. Sequence TCTCGGAACC has a switch fluorescence ratio of 1.11. TCTCGGAGGC gave a switch fluorescence ratio of 1.09. With TCTCGTAAAG the switch fluorescence ratio was 1.01. TCTCGTATTT gave a switch fluorescence ratio of 1.05. Sequence TCTCTAAGT has a switch fluorescence ratio of 1.04. TCTCTAGATT was tested, and the switch fluorescence ratio was 1.04. Work on TCTCTAGCTA yielded a switch fluorescence ratio of 1.69. Sequence TCTCTATGCT has a switch fluorescence ratio of 1.01. TCTCTCGAGC was tested, and the switch fluorescence ratio was 1.1. Work on TCTCTGCTTG yielded a switch fluorescence ratio of 1.02. Work on TCTCTTGGTT yielded a switch fluorescence ratio of 1.03. In the case of TCTGAACGTC, the switch fluorescence ratio is reported as 1.11. With TCTGAATGAG the switch fluorescence ratio was 0.97. With TCTGACGTCC the switch fluorescence ratio was 1.08. For TCTGACGTTG, the switch fluorescence ratio was 1.03. TCTGAGATGT showed a switch fluorescence ratio of 1.01. In the case of TCTGAGTTAG, the switch fluorescence ratio is reported as 0.969. In the case of TCTGCAAGTC, the switch fluorescence ratio is reported as 4.26. TCTGCCACCA gave a switch fluorescence ratio of 1.01. For TCTGCCACTT, the switch fluorescence ratio was 0.986. Sequence TCTGCCCTAC has a switch fluorescence ratio of 2.37. For TCTGCCGGCC, the switch fluorescence ratio was 1.06. Sequence TCTGCGACCT has a switch fluorescence ratio of 1.1. Work on TCTGCGGTA yielded a switch fluorescence ratio of 1.03. TCTGCTCGG was tested, and the switch fluorescence ratio was 1.03. Sequence TCTGCTTGGT has a switch fluorescence ratio of 0.977. In the case of TCTGGAAGCG, the switch fluorescence ratio is reported as 0.995. For TCTGGACTAG, the switch fluorescence ratio was 0.96. Sequence TCTGGCCAAC has a switch fluorescence ratio of 1.04. Sequence TCTGGCCCTT has a switch fluorescence ratio of 1.02. In the case of TCTGGGCACC, the switch fluorescence ratio is reported as 0.984. Sequence TCTGGGCTT has a switch fluorescence ratio of 0.982. Work on TCTGGGGGG yielded a switch fluorescence ratio of 1.02. TCTGGGTCGG showed a switch fluorescence ratio of 0.973. TCTGGTTACC showed a switch fluorescence ratio of 0.988. In the case of TCTGTACGCA, the switch fluorescence ratio is reported as 1.61. For TCTGTATGGT, the switch fluorescence ratio was 0.983. For TCTGTCATTG, the switch fluorescence ratio was 0.973. TCTGTGCGTT gave a switch fluorescence ratio of 1.05. TCTGTGGCGC was tested, and the switch fluorescence ratio was 0.981. TCTGTTACTT was tested, and the switch fluorescence ratio was 1.01. Sequence TCTGTTGTTT has a switch fluorescence ratio of 0.996. Work on TCTTAAACC yielded a switch fluorescence ratio of 1.02. For TCTTAACGAG, the switch fluorescence ratio was 0.99. In the case of TCTTAAGAGG, the switch fluorescence ratio is reported as 0.981. TCTTAAGTTT showed a switch fluorescence ratio of 1.01. For TCTTACCGGT, the switch fluorescence ratio was 0.998. Work on TCTTACTCAG yielded a switch fluorescence ratio of 1.2. TCTTAGCATG gave a switch fluorescence ratio of 1.04. In the case of TCTTAGGAAT, the switch fluorescence ratio is reported as 1.03. TCTTAGTGCT showed a switch fluorescence ratio of 1.07. TCTTATCAGA gave a switch fluorescence ratio of 1.03. TCTTATGAGA gave a switch fluorescence ratio of 0.955. With TCTTCCTTGT the switch fluorescence ratio was 1.09. Work on TCTTCGTCTC yielded a switch fluorescence ratio of 1.07. Sequence TCTTCTAAGG has a switch fluorescence ratio of 1.04. With TCTTCTTGTA the switch fluorescence ratio was 0.989. With TCTTGACGAT the switch fluorescence ratio was 0.958. TCTTGATTTG was tested, and the switch fluorescence ratio was 0.981. With TCTTGCTAAA the switch fluorescence ratio was 1.47. In the case of TCTTGCTCTT, the switch fluorescence ratio is reported as 1. TCTTGCTTGC gave a switch fluorescence ratio of 1.03. For TCTTGGAAAA, the switch fluorescence ratio was 1.01. In the case of TCTTGGGGAA, the switch fluorescence ratio is reported as 0.985. TCTTGGTAAC gave a switch fluorescence ratio of 1.04. Work on TCTTGTAGTT yielded a switch fluorescence ratio of 1. For TCTTGTGTTG, the switch fluorescence ratio was 1. With TCTTTATGGC the switch fluorescence ratio was 0.985. TCTTTATTTA showed a switch fluorescence ratio of 0.989. With TCTTTGAGCT the switch fluorescence ratio was 1.01. With TCTTTGCT the switch fluorescence ratio was 0.979. TCTTTGGTGT gave a switch fluorescence ratio of 1.03. TCTTTTTCGA was tested, and the switch fluorescence ratio was 1. With TGAAAAAACG the switch fluorescence ratio was 1.02. TGAAAAGGGT showed a switch fluorescence ratio of 1.05. With TGAAAATATA the switch fluorescence ratio was 0.976. In the case of TGAAAATGTG, the switch fluorescence ratio is reported as 0.985. For TGAAACGGTC, the switch fluorescence ratio was 1.14. For TGAAACTTT, the switch fluorescence ratio was 1.02. Sequence TGAAAGCATC has a switch fluorescence ratio of 1.08. TGAAAGCCAA was tested, and the switch fluorescence ratio was 0.998. For TGAAAGGACA, the switch fluorescence ratio was 1.01. Work on TGAAAGGTT yielded a switch fluorescence ratio of 0.986. Work on TGAAAGTGT yielded a switch fluorescence ratio of 1. With TGAAATACCA the switch fluorescence ratio was 1.01. For TGAAATATGC, the switch fluorescence ratio was 0.992. Sequence TGAACCAGTT has a switch fluorescence ratio of 0.966. Sequence TGAACCCAGG has a switch fluorescence ratio of 3.16. TGAACTCGCC gave a switch fluorescence ratio of 1.12. TGAACTGAAC showed a switch fluorescence ratio of 1.24. TGAACTTGAT gave a switch fluorescence ratio of 1.05. TGAAGACGGG was tested, and the switch fluorescence ratio was 0.99. In the case of TGAAGCAGAG, the switch fluorescence ratio is reported as 1.36. In the case of TGAAGCGTGA, the switch fluorescence ratio is reported as 1. TGAAGGACAA was tested, and the switch fluorescence ratio was 1.06. TGAAGGTATA showed a switch fluorescence ratio of 1.02.

Source: the supplement of paper PMC10126150
